Where “and” joins values, the source holds several entries; their conditions need not be identical. Equal entries are not always repeated. Hit rate of the full screen: of about 220,000 compounds, about 16,000 (7.3%) were called active. Inconclusive results, whose numbers are uncertain, are shown with a selection of clear calls. The call rests on the fitted dose curve; in most records, active means well fitted inhibition curve with a large enough effect (not every such curve was filed as active); inconclusive means small, poorly fitted or top-dose-only effect, or another doubt; inactive means no such curve, though single readings can be large or run the other way. No potency is given beside an inconclusive call; the fits are too rough.
Target: Aldehyde dehydrogenase 1A1 (Homo sapiens) (UniProt P00352)
Sequence of UniProt P00352 (P00352 whole entry, looked up): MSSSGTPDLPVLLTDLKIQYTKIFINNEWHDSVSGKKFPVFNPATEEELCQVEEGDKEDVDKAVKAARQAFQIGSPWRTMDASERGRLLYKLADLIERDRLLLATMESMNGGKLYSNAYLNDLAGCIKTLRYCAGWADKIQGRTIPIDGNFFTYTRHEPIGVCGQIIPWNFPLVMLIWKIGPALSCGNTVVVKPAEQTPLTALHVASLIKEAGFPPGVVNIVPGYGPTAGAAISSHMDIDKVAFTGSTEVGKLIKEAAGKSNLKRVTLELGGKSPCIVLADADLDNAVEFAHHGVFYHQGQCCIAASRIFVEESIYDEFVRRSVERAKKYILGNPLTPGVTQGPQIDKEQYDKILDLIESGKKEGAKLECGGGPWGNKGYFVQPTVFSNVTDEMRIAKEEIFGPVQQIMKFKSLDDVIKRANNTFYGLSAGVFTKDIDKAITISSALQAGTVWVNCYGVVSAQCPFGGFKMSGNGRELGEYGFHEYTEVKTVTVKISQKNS
Experiment: qHTS Assay for Inhibitors of Aldehyde Dehydrogenase 1 (ALDH1A1);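 on activity, negative = inhibition: plate controls were no enzyme wells and a reference inhibitor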
Settings: Purified ALDH1A1, NADH fluorescence, propionaldehyde substrate; series mostly up to 75.3 µM
Potency means the concentration at half of the fitted maximal effect; tags describe the fitted curve by direction and shape.

SMILES	Potency	activity, negative = inhibition
CC1CCCN(C2=C(Cl)C(=O)N(c3cccc(Cl)c3)C2=O)C1 (configuration not stated)	inconclusive [inhibitor, single point]	–
O=C(Nc1ncc2c(n1)-c1ccccc1OC2)c1ccc(Cl)cc1	inconclusive [inhibitor, partial curve]	–
COC(=O)CN1C(=O)C2(OCCCO2)c2ccccc21	inactive	–
Cc1cc([N+](=O)[O-])ccc1N(C)C	inactive	–
CCCCC(=O)NC(=S)Nc1ccc(S(=O)(=O)N2CCCC2)cc1	inconclusive [inhibitor, single point]	–
O=C(CCNS(=O)(=O)c1cccc2nonc12)NC1CCCCCC1	active: 25.1 µM	–
CN(C)S(=O)(=O)c1cccc(NC(=O)CCNC(=O)c2ccccc2Cl)c1	inactive	–
CCN(C(=O)COC(=O)c1cc(-c2cccc3ccccc23)nc2ccccc12)C1CCS(=O)(=O)C1 (configuration not stated)	inconclusive [inhibitor, single point]	–
Cc1ccc(Nc2nc(-c3ccc(S(=O)(=O)N4CCOCC4)cc3)cs2)cc1Cl	inconclusive [inhibitor, partial curve]	–
S=c1[nH]nc(-c2ccco2)n1/N=C/c1ccc(Cl)c(Cl)c1	inconclusive [inhibitor, single point]	–
CN(C)/C=C1/NC(=S)NC1=O	inactive	–
COc1cc(C2Nc3ccccc3C(=O)N2c2ccccc2)c(Br)cc1OCC(=O)O (configuration not stated)	inconclusive [inhibitor, partial curve]	–
CCN(CC)c1ccc(NC(=O)COC(=O)/C=C/c2nc3ccccc3s2)cc1	inconclusive [inhibitor, single point]	–
COc1cc(NC(=O)c2ccc(Br)o2)ccc1NC(=O)C(C)C	inconclusive [inhibitor, single point]	–
CCC(C)C(=O)Nc1cc(Cl)ccc1C(=O)O (configuration not stated)	inconclusive [inhibitor, partial curve]	–
CCCS(=O)c1nc(C)cc(C)c1S(C)(=O)=O (configuration not stated)	inactive	–
Nc1nc2nc(-c3ccc(Cl)cc3)cc(C(F)(F)F)n2n1	inconclusive [inhibitor, full curve]	–
O=C(Nc1nc2ccccc2s1)c1cc2c(s1)-c1ccccc1OC2	inconclusive [inhibitor, partial curve]	–
NS(=O)(=O)c1cc(C(=O)N=Nc2c(O)[nH]c3ccccc23)ccc1Cl	inactive	–
COC(=O)c1c(-c2cc(OC)c(OC)c(OC)c2)c2ccc(OCc3ccccn3)cc2c(=O)n1-c1ccc(N)cc1	inactive	–
O=C(Cn1nnc(-c2ccccc2)n1)N/N=C/c1cc([N+](=O)[O-])ccc1O	inconclusive [inhibitor, single point]	–
CC(C)CNS(=O)(=O)c1ccc(CCC(=O)NCC2CCCO2)cc1 (configuration not stated)	inactive	–
COc1ccc(-c2csc(NC(=O)c3cccs3)c2C(=O)O)cc1OC	inconclusive [inhibitor, single point]	–
c1csc(-c2nc(-c3ccc(-c4ccon4)s3)no2)c1	inconclusive [inhibitor, single point]	–

SMILES	Potency	activity, negative = inhibition
COc1ccc(-c2noc(-c3ccccc3Cl)n2)cc1OC	inconclusive [inhibitor, single point]	–
COc1ccc(CNC(=O)CSc2nc(C)cs2)cc1	inconclusive [inhibitor, partial curve]	–
Cc1cc(OC(=O)CNC(=O)OC(C)(C)C)c2c(C)cc(=O)oc2c1	active: 15.8 µM	–
CCOC(=O)c1c(NC(=O)C2CCCO2)sc(C(=O)OC(C)(C)C)c1C (configuration not stated)	active: 14.1 µM	–
Cn1c(C(=O)O)c(CC(=O)NCc2cccnc2)c2ccccc21	inconclusive [inhibitor, partial curve, poor fit]	–
CC(C)Cn1nc(NS(=O)(=O)c2ccccc2)c2cc3ccccc3nc21	inconclusive [inhibitor, full curve]	–
COC(=O)c1ccc(Oc2nc(NC(C)(C)C)nc(N3CCOCC3)n2)cc1	inactive	–
Cc1ccccc1-n1nc(C)c2cc(C(=O)N3CCN(S(=O)(=O)c4ccc(F)cc4)CC3)sc21	inconclusive [inhibitor, single point]	–
Cc1cn(CC[C@H](N)C(=O)O)c(=O)[nH]c1=O	–	inactive: -6.65% [at 13.5 µM]
CN1CCN(c2ncc3nc(-c4cc(F)cc(F)c4)c(=O)n(-c4ccccc4)c3n2)CC1	inconclusive [inhibitor, partial curve]	–
CCOC(=O)c1cnn2c(C)cc(-c3ccccc3)nc12	inconclusive [inhibitor, partial curve]	–
COc1cccc(-c2cnc(NCc3cc(Cl)ccc3O)n2C)c1	inconclusive [inhibitor, single point]	–
COC(=O)[C@@H]1CC[C@H](C)[C@@H](c2ccc(C)cc2)N1C(=O)c1ccc(/C=N\O[C@@H]2O[C@H](COC(C)=O)[C@H](OC(C)=O)[C@H](OC(C)=O)[C@H]2OC(C)=O)cc1	–	inactive: 13.3% [at 13.5 µM]
Nc1ccc(C(=O)O)cc1	inactive	–
CC1CCCCN1C(=O)COc1ccc2ccc(=O)oc2c1 (configuration not stated)	inconclusive [inhibitor, single point]	–
COc1ccccc1/C=C/C(=O)OCC(=O)Nc1ccccc1Sc1ccccc1	inconclusive [inhibitor, partial curve]	–
CC(C)Sc1n[nH]c(=O)n1-c1ccccc1	inactive	–
C=CCN1C(=O)SC(Cc2cccc(OC)c2O)C1=O (configuration not stated)	inconclusive [inhibitor, single point]	–
CCOC(=O)N1CCN(C(=O)C2CCN(S(=O)(=O)c3ccc(Br)s3)CC2)CC1	inactive	–
O=Nc1c2cc(-c3ccccc3)[nH]nc-2c2ccccc12	inactive	–
CCOC(=O)c1ccc(-n2c(-c3ccco3)nc3ccccc3c2=O)cc1	inconclusive [inhibitor, single point]	–
COc1ccc(-n2nnc3c(=O)n(CC(=O)N4CCC(C)CC4)cnc32)cc1	inconclusive [inhibitor, single point]	–
COc1cc(NC(=O)c2ccccc2F)ccc1NC(=O)c1ccccc1Cl	inconclusive [inhibitor, partial curve]	–
CC(=O)c1c(C(C)=O)c(C)n(NC(=O)c2ccncc2)c1C	inconclusive [inhibitor, partial curve, poor fit]	–

SMILES	Potency	activity, negative = inhibition
O=C(Nc1ccc2nc(-c3cccnc3)[nH]c2c1)c1ccco1	inconclusive [inhibitor, single point]	–
O=C1NC(=S)N/C1=C\c1ccc(N2CCOCC2)cc1	inactive	–
Cc1ccc(S(=O)(=O)NNc2ccccc2)c(C)c1	active: 7.08 µM	–
COC(=O)C1=C(CSc2nc3c(cc2C#N)CN(C)CC3)OC(N)=C(C#N)C1c1ccc(F)cc1 (configuration not stated)	inconclusive [inhibitor, single point]	–
COc1ccc(NC(=S)Nn2cnnc2)cc1OC	active: 3.98 µM	–
COc1ccc(-n2c(=S)[nH]c3cc(C(=O)NCc4ccco4)ccc3c2=O)cc1OC	active: 79.4 nM and active: 112 nM	–
S=C(Nc1ccc(Cl)cc1)NC1CCN(Cc2ccccc2)CC1	active: 3.98 µM	–
Cc1ccc(N2C(=O)SC(N(CC(=O)O)c3cccc(C)c3)C2=O)cc1 (configuration not stated)	inconclusive [inhibitor, single point]	–
COCCn1c(=O)c(C)nc2cnc(N3CCOCC3)nc21	inconclusive [inhibitor, single point]	–
Cc1cccc2cc(CN(Cc3ccc4c(c3)OCO4)Cc3nnnn3C3CCCC3)c(=O)[nH]c12	active: 11.2 µM	–
COC(=O)C1=C(N)OC2=C(C(=O)CCC2)C1c1cccnc1 (configuration not stated)	inactive	–
COC(=O)c1ccc(C(=O)OC)c(-n2c(=O)c3ccccc3c3ccccc3c2=O)c1	inconclusive [inhibitor, single point]	–
CCc1nnc(NC(=O)CSc2nnc(-c3cccnc3)n2CCc2ccccc2)s1	inconclusive [inhibitor, single point]	–
CC(C)CNC(=S)NNC(=O)c1csc2ccccc12	inactive	–
CCOC(=O)C1=C(C)NC(C)=C(C(=O)OCC)C1C(=O)OCC(=O)N1CCc2ccccc2C1	inconclusive [inhibitor, single point]	–
CCS(=O)(=O)n1nc(-c2ccccc2)nc1N	inconclusive [inhibitor, single point]	–
O=C(OCC(=O)N1CCc2ccccc21)C1=COCCO1	active: 14.1 µM	–
CCn1c(CSc2ncccn2)nnc1SCC(=O)N1c2ccccc2CC1C (configuration not stated)	active: 25.1 µM	–
COc1ccc2c(c1)C1=C(CC2)C(c2ccc(C)cc2)NC(=S)N1 (configuration not stated)	active: 0.398 µM	–
O=C(c1ccco1)N1CCN(Cc2cccnc2)CC1	inconclusive [inhibitor, single point]	–
NC(=O)COc1ccc(C2c3c(oc4ccccc4c3=O)C(=O)N2CC2CCCO2)cc1 (configuration not stated)	inconclusive [inhibitor, single point]	–
CSc1ccc2[nH]c(=O)cc(C)c2c1	inconclusive [inhibitor, partial curve]	–
CCNC(=O)NC(=O)COC(=O)CCCc1nc2ccccc2s1	inconclusive [inhibitor, single point]	–
C=CCn1c(NC(=O)c2ccc(Br)o2)c(S(=O)(=O)c2ccccc2)c2nc3ccccc3nc21	inconclusive [inhibitor, partial curve]	–

From PubChem BioAssay AID1030 (National Center for Advancing Translational Sciences (NCATS), 2008)
